In all, about 390,000 compounds went through this assay and about 17,000 (4.4%) were called active. This list was built around the results that the source calls inconclusive (neither active nor inactive); the mix of calls is not that of the screen. The call rests on the fitted dose curve; in most records, active means well fitted inhibition curve with a large enough effect; inconclusive means small, poorly fitted or top-dose-only effect; inactive means no such curve, though single readings can be large or run the other way. Potencies beside an inconclusive call are fits to weak or partial responses and may not hold up. Where a structure was tested more than once in an assay, its records may differ in their call.
target: Lysine-specific demethylase 4A (Homo sapiens) (UniProt O75164); assay: qHTS Assay for Inhibitors of JMJD2A-Tudor Domain; conditions: AlphaScreen JMJD2A-Tudor / H3K4me3 peptide binding; activity change, negative = inhibition: at 114 µM (top of the series); further: nearly all actives have a fitted effect of over 50% in size
Sequence of UniProt O75164 (O75164 whole entry, looked up, the tested form may be a part): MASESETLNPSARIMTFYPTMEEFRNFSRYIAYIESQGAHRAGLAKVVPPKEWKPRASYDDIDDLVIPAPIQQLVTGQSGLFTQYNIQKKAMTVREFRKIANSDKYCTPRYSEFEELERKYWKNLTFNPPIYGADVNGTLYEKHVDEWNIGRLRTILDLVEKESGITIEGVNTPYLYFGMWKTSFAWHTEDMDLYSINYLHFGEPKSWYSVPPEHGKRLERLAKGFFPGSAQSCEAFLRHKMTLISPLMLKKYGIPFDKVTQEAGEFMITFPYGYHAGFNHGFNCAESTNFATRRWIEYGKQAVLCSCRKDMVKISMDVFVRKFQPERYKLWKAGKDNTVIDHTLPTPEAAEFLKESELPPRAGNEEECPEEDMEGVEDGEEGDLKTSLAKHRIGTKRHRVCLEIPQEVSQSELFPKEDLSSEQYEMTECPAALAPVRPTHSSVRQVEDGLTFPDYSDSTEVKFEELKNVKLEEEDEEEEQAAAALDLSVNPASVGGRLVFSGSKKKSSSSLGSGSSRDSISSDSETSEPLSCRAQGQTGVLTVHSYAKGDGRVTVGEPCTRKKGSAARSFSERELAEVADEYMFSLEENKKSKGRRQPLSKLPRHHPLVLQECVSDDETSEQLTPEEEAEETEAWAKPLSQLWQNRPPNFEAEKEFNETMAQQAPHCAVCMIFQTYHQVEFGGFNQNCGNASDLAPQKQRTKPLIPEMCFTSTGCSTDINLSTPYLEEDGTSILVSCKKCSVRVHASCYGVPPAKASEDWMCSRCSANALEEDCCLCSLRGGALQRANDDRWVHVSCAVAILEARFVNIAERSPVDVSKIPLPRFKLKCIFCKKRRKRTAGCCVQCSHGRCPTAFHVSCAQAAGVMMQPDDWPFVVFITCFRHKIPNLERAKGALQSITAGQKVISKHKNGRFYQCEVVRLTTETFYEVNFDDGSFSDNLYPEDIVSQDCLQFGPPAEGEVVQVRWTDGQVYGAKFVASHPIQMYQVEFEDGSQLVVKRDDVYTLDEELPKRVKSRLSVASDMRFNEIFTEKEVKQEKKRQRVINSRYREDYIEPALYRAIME
On the % scale 0 is the no-effect control and ±100 the full control effect; potency means the concentration at half of the fitted maximal effect; tags describe the fitted curve by direction and shape.

Potency, active:
O=C(NCc1ccco1)c1ccc([N+](=O)[O-])o1 56.2 µM
Cc1noc2nc(C(=O)O)nc(N3CCCCC3)c12 39.8 µM
Cc1cccc(/C=N\NC(=O)c2csnn2)c1 79.4 µM
COc1ccccc1C(=O)Nc1nnc(S(=O)(=O)N2CCCCCC2)s1 20 µM
COC(=O)c1ccc(OCCCCN2CC(C)OC(C)C2)cc1 (centres undefined) 11.2 µM

Potency, inconclusive:
COc1ccc(OC)c(NC(=O)c2cc3sccc3n2C)c1 50.1 µM [inhibitor, partial curve]
CCCOC(=O)N1CCN(/[N+]([O-])=N/Oc2ccc([N+](=O)[O-])cc2[N+](=O)[O-])CC1 56.2 µM [inhibitor, partial curve]
CCN1CCN(c2cc(C)c3cc(NC(=O)c4ccc(Br)o4)ccc3n2)CC1 89.1 µM [inhibitor, partial curve, poor fit]
O=C(/C=C/c1ccc2ccccc2n1)c1cc(Br)ccc1O 56.2 µM [inhibitor, partial curve]
CCN1/C(=C2\C(=O)N(C)C(=S)N2C)C=Cc2cc(OC)ccc21 14.1 µM [inhibitor, single point]
COc1ccc(N2CCN(C3CCCN(Cc4ccc(F)cc4Cl)C3)CC2)cc1 (centres undefined) 50.1 µM [inhibitor, partial curve]
CCCCN(CC)C(=O)Nc1ccc2c(c1)N(C)C(=O)c1ccccc1S2 56.2 µM [inhibitor, partial curve]
Cc1cccc(N2C(=O)/C(=C/c3cccnc3)SC2=S)c1 3.55 µM [inhibitor, full curve, poor fit]
CCOC(=O)C1=NN(c2ccc(F)cc2)C2=NC(C)=C(C(=O)OC)C(c3cccs3)N12 (centres undefined) 10 µM [inhibitor, partial curve]
CCN(CC)c1ccc(/C=N/n2nnnc2N)c(O)c1 89.1 µM [inhibitor, partial curve]
COc1cc(/C=C2\C(=O)N(c3ccc(S(N)(=O)=O)cc3)N=C2C)ccc1OC(=O)c1ccco1 50.1 µM [inhibitor, partial curve]
CCc1ccc(-c2nnn(Cc3nn[nH]n3)n2)cc1 100 µM [inhibitor, single point]
C[C@@H]1[C@H]2[C@@H]3CC[C@@H](C3)[C@H]2CN[C@H]1c1cn(Cc2ccccc2)c2ccccc12 56.2 µM [inhibitor, partial curve, poor fit]
COc1cc(/C=C/C(=O)c2ccc3c(c2)OCCO3)cc(Br)c1OCC(=O)N(C)C 79.4 µM [inhibitor, partial curve]
COc1ccc(-n2c(=S)[nH]c3cc(C(=O)NCCCN4CCOCC4)ccc3c2=O)c(OC)c1 35.5 µM [inhibitor, single point]
O=C(NCC(=O)N(Cc1cccs1)C(C(=O)NC1CCCCC1)c1ccco1)c1cccs1 (centres undefined) 89.1 µM [inhibitor, single point]
CC1CCc2sc(C(=O)NN=C3CCC(c4ccccc4)CC3)cc2C1 (centres undefined) 35.5 µM [inhibitor, full curve, poor fit]
COc1cccc(/C=N/Nc2nc(Nc3ccccc3)nc(-n3nc(C)cc3C)n2)c1O 3.98 µM [inhibitor, full curve, poor fit]
COc1cc(-c2noc(C)c2C(=O)NCc2ccc(C)o2)cc(OC)c1OC 89.1 µM [inhibitor, partial curve]
O=C(c1cc([N+](=O)[O-])ccc1Cl)N1c2ccccc2Sc2ccccc21 22.4 µM [inhibitor, full curve]
Cn1c(C(=O)N2CCCC(C(=O)NCCCc3ccccc3)C2)cc2sccc21 (centres undefined) 50.1 µM [inhibitor, partial curve]
O=C(C=C(C(=O)c1ccccc1)c1ccccc1)c1ccccc1 11.2 µM [inhibitor, full curve, poor fit]
Cc1ccc2c(c1)C1OCCC1C1N2C(=O)C2C(C(=O)O)C3C=CC21O3 (centres undefined) 79.4 µM [inhibitor, single point]
CCCN1CCCc2cc(CN(CCCN3CCOCC3)C(=O)Nc3ccc(CC)cc3)ccc21 12.6 µM [inhibitor, partial curve, poor fit]
Cc1ccccc1OCC(=O)N/N=C/c1ccc(N2CCOCC2)o1 35.5 µM [inhibitor, partial curve, poor fit]

Activity change, negative = inhibition, inconclusive:
Nc1ccc(Sc2ccc([N+](=O)[O-])cc2)cc1 -46.4% [inhibitor]

Activity change, negative = inhibition, inactive:
COc1ccc(/C=C2\SC(N3CCCCC3)=NC2=O)cc1OC -25.2%
Cc1ccc(S(=O)(=O)N(CCC(=O)N2CCOCC2)c2ccccc2)cc1 -7.59%
COC(=O)c1ccc(NC(=O)CN2C(=O)CSC2=O)cc1 -8.33%
Cc1ccc(NC(=O)CSCC(=O)NC2=NCCS2)cc1 -9.77%
Cc1ccccc1S(=O)(=O)N1[C@@H](c2ccc(Cl)cc2)C(C(=O)O)=CC[C@H]1c1ccc(Cl)cc1 -20.1%
CC(=O)NC(CC(=O)N(C)Cc1cccc(Cl)c1Cl)c1ccccc1 (centres undefined) -12.4%
O=C1CN(C(=O)c2ccc3nc(Cc4cccc(Cl)c4)oc3c2)CCN1 -0.694%
Cc1ccc(NC(=O)N2CCCC2C(=O)Nc2ccc3c(c2)OCO3)cc1 (centres undefined) -12.7%
O=C(OCc1cc(=O)n2c3c(sc2n1)CCCC3)c1cccc(NC(=O)c2ccccc2F)c1 -5.96%
COc1cc(-c2noc(C)c2/C=C/c2cccc([N+](=O)[O-])c2)cc(OC)c1OC -27.5%
CC(=O)N1c2ccc(S(=O)(=O)N3CCC(C(=O)NC(C)c4ccccc4)CC3)cc2CC1C (centres undefined) 3.45%
CCOC(=O)c1cccc(Nc2ccc3cc(S(=O)(=O)N4CCCCC4)ccc3n2)c1 28.2%
COc1cccc(/C=N\NC(=O)c2sc(N)nc2C)c1OC -16% [at 11.4 µM]

Source: PubChem BioAssay AID504339 (National Center for Advancing Translational Sciences (NCATS), 2011)
